Whole data set: some 33,000 sequences, median “E-score (-0.5 to 0.5)” near -0.01, cut for the highest 2% near 0.26. The list shows a part of the results.
What follows are sequences tested against Ste12 (UniProt P13574) (assay: PBM E-score (8-mer binding enrichment) (E-score (-0.5 to 0.5)); higher = stronger / more preferred TF binding; most listed sequences are background and not binding sites). Settings: protein concentration: 200 nM; construct: GST-DNA-binding domain.
Protocol: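 Universal 'all 10-mer' protein binding microarrays (Agilent AMADID 015681) probed with GST-tagged S. cerevisiae TFs (full-length or DBD) made by in vitro transcription/translation (PURExpress), about 100-200 nM. Bound TF was detected with fluorescent anti-GST. Each ungapped 8-mer (which stands for itself and its reverse complement) is scored by the PBM enrichment score (E-score), a modified Wilcoxon-Mann-Whitney statistic from -0.5 to +0.5, computed with the Universal PBM Analysis Suite. Scale: above 0.35 generally sequence-specific binding.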

| Sequence | PBM E-score |
| --- | --- |
| CCCTTTGA | -0.0164 |
| AAACCTAA | 0.121 |
| GAAGAACA | 0.119 |
| ACAGGAAG | 0.0226 |
| ACACAGCT | -0.147 |
| TAGGTGCA | -0.186 |
| CCAACAAA | 0.248 |
| AACGAATT | 0.125 |
| GAAGATTA | 0.121 |
| TCATCACA | -0.0218 |
| AAAGAAGT | 0.127 |
| ACTGAGCA | -0.119 |
| CAACTTGA | 0.0746 |
| ATGGGGGA | 0.00889 |
| GTCGATAA | -0.0899 |
| AGATGGAC | 0.0057 |
| ATTCGGTA | 0.148 |
| GACTCATC | -0.139 |
| CAGGTGCC | -0.0927 |
| ACGCACGG | -0.0974 |
| CAACGCTA | -0.141 |
| CTTTGGGC | -0.0925 |
| CGCAACCA | 0.0423 |
| AATGCGCT | -0.0615 |
| ACGAATGG | 0.104 |

| Sequence | PBM E-score |
| --- | --- |
| AGTTGACC | -0.00451 |
| CCAGAGAC | -0.0447 |
| GATTTCTA | 0.197 |
| CATTGCAG | 0.0295 |
| CGACGGTA | -0.00601 |
| ATAGCTAG | 0.00107 |
| CGAGAGGA | 0.0361 |
| GTCAAGGA | -0.193 |
| GCTAACCC | -0.192 |
| CCCAGCAA | 0.0734 |
| GGTCACTA | 0.0189 |
| GTTGGTGA | 0.0365 |
| ATTTGAGG | 0.0517 |
| CATATGGC | -0.0838 |
| ACATGAAA | 0.283 |
| CAGATGGC | 0.0115 |
| CGGGACAA | 0.115 |
| AATTACAT | 0.0508 |
| GGTCTACA | -0.17 |
| AAAGCTCG | -0.0769 |
| GTAAATGA | 0.105 |
| AACGCAAC | 0.103 |
| ACTAATAT | 0.288 |
| ATCGGTCG | 0.00241 |
| ATTCGGAC | 0.158 |

| Sequence | PBM E-score |
| --- | --- |
| GGCACCAA | 0.134 |
| GATGTAGA | 0.0935 |
| AGCCAAAG | -0.076 |
| TCTCGGAA | 0.0872 |
| AATTAAGG | 0.0961 |
| CATTCGAG | -0.0513 |
| CGTGCAGA | 0.0508 |
| CCGTGTGA | 0.0489 |
| TGCGACCA | 0.196 |
| GGCTCCGA | 0.0554 |
| AAATGTGC | 0.135 |
| AAGAACCA | 0.102 |
| AATACGCT | -0.059 |
| AATTCAGT | 0.11 |
| CAGGGAAC | -0.0428 |
| TAAACTAA | 0.148 |
| CGAAGAAA | 0.195 |
| AGTGATCC | -0.115 |
| CATAATTC | 0.0847 |
| ACGAGTCA | -0.217 |
| AAATGTAC | 0.137 |
| CGTCTTCA | 0.0887 |
| ACGGGTGA | -0.0108 |
| GCCCACGC | -0.208 |
| CCTCTCCA | -0.27 |

| Sequence | PBM E-score |
| --- | --- |
| CAGAATGC | -0.0398 |
| AGCCGGTC | -0.208 |
| GACGACTA | -0.309 |
| ACACTATC | -0.0353 |
| TCACACCA | 0.0689 |
| GCTGTTTA | 0.14 |
| GATCCACA | -0.0832 |
| AAATTCCG | 0.0548 |
| TGCCGGAA | 0.127 |
| CCGTGGTC | -0.0895 |
| GGAAGCCA | -0.234 |
| CCGCACCA | 0.0349 |
| CCGAGCAA | -0.0609 |
| CAGATAGA | 0.02 |
| GATATGCC | -0.151 |
| CGAGAACA | -0.00474 |
| CGTAGTGC | -0.235 |
| CCAAGAGC | -0.0114 |
| ATAGGCTC | 0.0469 |
| CCGAAACG | 0.152 |
| CCCCAGTA | -0.151 |
| GTCTTAAC | -0.0934 |
| CAATTTAC | 0.162 |
| CCGGGAGA | 0.00169 |
| CGGCGGAC | 0.0594 |

| Sequence | PBM E-score |
| --- | --- |
| GGGAAGCA | -0.0502 |
| CGCCAGCC | 0.113 |
| ACACTGGC | -0.0123 |
| ACGCCCCA | 0.239 |
| CTTCTTGC | 0.0552 |
| CGCGGCCG | -0.0485 |
| GTGCTTCA | 0.0585 |
| ACAGTTCC | 0.155 |
| AATGTACG | -0.0878 |
| AAGACAAT | 0.189 |
| CCTTCTAC | -0.123 |
| AGTATAGA | 0.0332 |
| CAAAAAAC | 0.298 |
| GACAAACC | 0.0318 |
| ACAATAAG | 0.0961 |
| ATCTCGGC | -0.117 |
| GCCCATTA | -0.0859 |
| AATGCCCA | -0.0978 |
| GCAACTGC | -0.0551 |
| CCAGAGAA | -0.0241 |
| ACTTGGGG | 0.143 |
| CGTTCCAG | 0.0196 |
| TACAGAGA | -0.0888 |
| CACCCGGG | -0.0473 |
| CCAGAAAG | 0.0754 |

| Sequence | PBM E-score |
| --- | --- |
| AAGGCAGC | -0.105 |
| ACATATTG | 0.0438 |
| TACGAAGA | -0.0985 |
| AGCTTACT | -0.142 |
| CGTCAACA | -0.096 |
| AGCTTAGA | 0.00955 |
| AGGTGATA | 0.0763 |
| CAAGAGTG | 0.00953 |
| ACCCAAAG | -0.0486 |
| GTGTAGCA | -0.0978 |
| CCTGCTTC | -0.104 |
| CATATGCA | 0.00871 |
| GGAAGGCC | -0.0691 |
| GTGCAAAC | 0.00957 |
| CGGGAGCC | -0.031 |
| CCTGTCCG | -0.117 |
| ATCGACTG | -0.0465 |
| TATTTACA | 0.101 |
| CTCCCCCC | -0.249 |
| AGCTCTTC | -0.136 |
| GAAGTCAC | -0.104 |
| CTCTCAAG | -0.0939 |
| ATTGTGCA | -0.0612 |
| CATAATGA | 0.0657 |
| GGGCCCGA | -0.00104 |

| Sequence | PBM E-score |
| --- | --- |
| ATTCGGAG | -0.0606 |
| CCTTGTAG | -0.135 |
| CGATGGTC | -0.166 |
| ATCAATCG | 0.0564 |
| AGGCACCC | -0.109 |
| CCGGGCAC | -0.0505 |
| CAGCAACA | 0.0784 |
| ATCCGCAA | 0.025 |
| AACGTAGA | -0.00253 |
| CTCTTGCC | -0.0697 |
| CAACTCCG | -0.0235 |
| AGCTAAGC | -0.234 |
| AACGGGTG | 0.127 |
| ACCCGCTG | -0.262 |
| CCCCGGCG | -0.0535 |
| CTCCGACC | 0.0614 |
| AACACTCC | 0.0877 |
| AAAGCTCC | -0.18 |
| ACTAGATG | 0.0624 |
| CGGTGTCA | -0.0214 |
| GAATGAAA | 0.322 |
| CTTATAAG | 0.0485 |
| AATTTGTC | 0.134 |
| ATGCTCTA | -0.0781 |
| TATAAGAA | 0.0401 |

| Sequence | PBM E-score |
| --- | --- |
| CGGGTGAG | -0.051 |
| TCCGACAA | -0.0026 |
| CCTGCCAC | 0.00798 |
| CTTTTCGC | 0.204 |
| TCAAAACA | 0.209 |
| GATGGGAC | 0.00042 |
| GATGTAAC | 0.0711 |
| ATTCGTTG | 0.0917 |
| CATTCGAA | 0.11 |
| ATGGTCTG | 0.0287 |
| ATGCCGTC | -0.0726 |
| GCTTAATA | 0.166 |
| GCTTACCC | -0.168 |
| ATATTTCG | 0.178 |
| AAGTATGC | -0.197 |
| AAACGGGC | 0.0947 |
| TCACTCAA | -0.0929 |
| AGTAGTCG | -0.0275 |
| ATTCAAAC | 0.279 |
| ACGGGAGA | -0.127 |
| ACAGGTTA | -0.0944 |
| CCCAACCA | 0.0418 |
| CCTTGCAA | -0.0217 |
| GCTGTGAA | -0.0834 |
| TGCGTAAA | 0.0161 |

| Sequence | PBM E-score |
| --- | --- |
| TATGCTCA | -0.0338 |
| ATGTCCAA | -0.00661 |
| CCCAAGGG | -0.239 |
| GTGACGAA | 0.0546 |
| ACCGGGAC | 0.122 |
| AATAAGAG | 0.0566 |
| ATAGTTGG | 0.0718 |
| AGTCCGAA | 0.0359 |
| AATTTTAT | 0.217 |
| CACCATTC | 0.0486 |
| ACCAATGA | 0.133 |
| AGGAGTAC | -0.268 |
| CCGTAGAG | -0.26 |
| CGCTAAAC | -0.237 |
| CAGTAAGC | -0.091 |
| ATGCCCAG | -0.148 |
| GCCGAAGC | -0.0613 |
| AGGTGCCG | -0.0417 |
| CCCCACCG | 0.137 |

— the supplement of paper PMC3334620
